Laboratory results reported in PubChem BioAssay AID1508642 (National Center for Advancing Translational Sciences (NCATS), 2021).
Screen size: about 43,000 compounds; about 200 (0.47%) were called active. About 12% were inconclusive and are not listed. Calls come from the whole dose curve; as a rule, active = well fitted cell-killing curve with a large enough effect; inconclusive = small, poorly fitted or top-dose-only effect, or effect the other way; inactive = flat fitted curve, though single readings scatter. This is one part of the list.

experiment: Cell viability qHTS assay in S16 Pmp22-F2sN cells; settings: S16 Pmp22-F2sN Schwann cells (luciferase reporters placed in the Pmp22 gene) viability, CellTiter-Glo, 24 h; series mostly up to 57.5 µM; activity change, negative = cytotoxicity: at the top concentration; note: nearly all actives have a fitted effect of over 65% in size
In short: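 S16 Schwann cells carrying the Pmp22-F2sN reporter, seeded in 1536-well format, were exposed to library compounds for 24 h at 37C. Viability was read as CellTiter-Glo luminescence after 15 min at room temperature.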
% is set by controls: 0 for no effect and ±100 for the full control effect.

Compound	activity change, negative = cytotoxicity
COc1ccc(CNC(=O)c2ccc(NC(=O)N3CCSc4ncccc43)cc2)cc1	inactive: 0.702%
CCCNC(=O)CN1CCN(c2ccc(NC(=O)c3ccc(OC)cc3)cc2C(=O)O)CC1	inactive: 6.34%
CCOC(=O)c1cccc(NC(=O)NC(C)c2c(-n3cccc3)sc3c2CCN(C)C3)c1 (stereo not drawn)	inactive: 3.65%
Cc1ccc(S(=O)(=O)c2nc(-c3ccccc3F)oc2NCc2ccccc2)cc1	inactive: 3.44%
Cc1nc(N2CCOCC2)c2c(C(=O)N3CCN(c4ccccc4)CC3)c(C)oc2n1	inactive: 4.85%
COc1ccccc1NC(=O)C1=C(C)Nc2nc(-c3ccco3)nn2C1c1ccccc1F (stereo not drawn)	inactive: -3.03%
Cn1nnnc1SCCNCc1ccc(Cl)c(Cl)c1	inactive: 6.98%
CCCc1cc(=O)[nH]c(Nc2ccc(OCC)cc2)n1	inactive: 4.29%
CCOc1ccc(C(=O)Nc2ccc(-n3nncc3-c3ccc(OC)cc3)cc2)cc1	inactive: -13.6%
COc1cccc(CCNC(=O)c2cnc3sc(N4CCOCC4)nn3c2=O)c1	inactive: 1.54%
Cc1cccc(S(=O)(=O)c2cn(C)c3cc(N4CCN(c5ccccc5)CC4)c(F)cc3c2=O)c1	inactive: -5.62%
Cc1ccc(Cn2c(C)c3cnn(CC(=O)NCCc4ccc(Cl)cc4)c(=O)c3c2C)cc1	inactive: 4.39%
COc1cc(NC(=O)N2CCC(CN3CCCCCC3)CC2)cc(OC)c1OC	inactive: 5.71%
CCc1ccc(NC(=O)Cn2cc(S(=O)(=O)c3ccc(F)cc3)c(=O)c3cc(OC)ccc32)cc1	inactive: -8.06%
CC(=O)c1ccc(NC(=O)CCc2c(C)nn(-c3ccc4nnc(C)n4n3)c2C)cc1	inactive: 9.48%
COc1ccc(NC(=O)C2CCC(CNS(=O)(=O)c3ccc(Br)s3)CC2)c(OC)c1 (stereo not drawn)	inactive: -2.34%
CC(C)CC(C(=O)NCC1CCN(Cc2ccc(F)cc2)CC1)N1Cc2ccccc2C1=O (stereo not drawn)	inactive: -9.42%
COC(=O)C1=C(C)N(C(C)C)C(=O)C1(NC(=O)c1ccc(C(C)(C)C)cc1)C(F)(F)F (stereo not drawn)	inactive: -1.01%
Cc1ccccc1Cn1c(=O)n(CCC(=O)NCc2ccco2)c(=O)c2sccc21	inactive: -3.3%
CC(C)Nc1nc2c(-c3cccc(Br)c3)nnn2c2ccccc12	inactive: 6.72%
CCn1cc(C(=O)N2CCN(c3cc(Cl)ccc3C)CC2)c(=O)c2cc(S(=O)(=O)N3CCCCC3)ccc21	inactive: -10.9%
O=C(CSc1nc(-c2ccccc2)nc2cc(=O)[nH]n12)Nc1ccccc1	inactive: 27.4%
CCc1nc(-c2ccc(C)c(S(=O)(=O)N3CCN(c4ccc(C(C)=O)cc4)CC3)c2)no1	inactive: -17.8%
Cc1ccccc1C(=O)N1c2ncnn2C2(CCCCC2)[C@@H]2CCCC[C@@H]21	inactive: -17.9%

Compound	activity change, negative = cytotoxicity
Cc1cccc(C)c1NC(=O)c1sc(-n2nc(C)c(Cc3ccc4c(c3)OCO4)c2C)nc1C	inactive: 1.18%
Clc1ccc(NCc2nc3ccccc3n2CCOc2ccccc2)cc1	inactive: -2.34%
COc1ccc(Cl)cc1NC(=O)Cn1c(=O)c2ccccc2n2nncc12	inactive: 9.93%
CCC(C(=O)Nc1ccc(C)c(Cl)c1)n1c(=O)c(-c2ccccc2NC(C)=O)nc2ccccc21 (stereo not drawn)	inactive: -2.35%
Cc1nc(-n2nc(C)c(CCC(C)C)c2C)sc1C(=O)Nc1cccc(Cl)c1	inactive: -8.33%
CCN(C(=O)CSc1nc2ccccc2nc1Cc1ccc(F)cc1)c1cccc(C)c1	inactive: -15.1%
COc1cc(CNCCSc2nnnn2C)ccc1OCc1ccc(Cl)cc1Cl	inactive: -21.6%
Cc1ccc(NC(=O)Cn2nc3c(cc2=O)CCCC3)cc1Cl	inactive: 8.36%
COc1ccc(C(=O)Nc2nc3ccccc3n2CCOc2ccc(Cl)cc2)cc1	inactive: -15.7%
CCOc1ccc(N(CC)C(=O)CCc2nc(-c3ccccc3F)no2)cc1	inactive: -2.92%
CNC(=O)c1cnc2sc(N3CCCCCC3)nn2c1=O	inactive: 7.12%
CCCOc1ccc(Oc2nc(NCC(C)C)nc(N(C)C)n2)nn1	inactive: -12.3%
CCc1ccc(NC(=O)C(Cc2ccccc2)NS(=O)(=O)c2ccc3c(c2)c(=O)n(C)c(=O)n3C)cc1 (stereo not drawn)	inactive: 17.7%
CCC(Sc1nnc(-c2ccc(OC)c(OC)c2)c(-c2ccc(OC)c(OC)c2)n1)C(=O)NC1CCCC1 (stereo not drawn)	inactive: 4.37%
COc1cccc(NC(=O)Cn2nc(C)c3c(C)n(-c4ccccc4)nc3c2=O)c1	inactive: -10.2%
Cc1cccn2c(=O)cc(CSc3nnc(NC(=O)c4ccc(F)cc4)s3)nc12	inactive: 0.635%
O=C(NCCc1ccccc1)c1ccc(Cn2c(SCc3ccccc3)nc3cccnc32)cc1	inactive: -0.771%
COc1ccc(-c2nc(CNS(=O)(=O)c3cccc(F)c3)cs2)cc1	inactive: 8.44%
CCOc1ccccc1NC(=O)C1=C(C)Nc2ncnn2C1c1ccc(C)o1 (stereo not drawn)	inactive: -0.997%
O=[N+]([O-])c1cc(-c2nc(-c3ccccc3)no2)ccc1N1CCOCC1	inactive: -0.238%
COc1ccc(-c2nc(CCNC(=O)c3ccc(Br)o3)cs2)cc1	inactive: -4.07%
CCc1ccccc1NC(=O)Cn1c(SCc2ccc(F)cc2)nc2ccncc21	inactive: -9.49%
Cc1cccc(NC(=O)c2oc3ccccc3c2NC(=O)Cc2coc3ccc(C(C)C)cc23)c1	inactive: -1.56%
CCc1cccc(CC)c1NC(=O)CCS(=O)(=O)c1ccc2c(c1)CCN2C(C)=O	inactive: 11.4%
